Laboratory results: PMC4336329 (PLoS ONE, 2015)
Hit rate of the full screen: of about 310,000 compounds, about 2,200 (0.71%) showed an effect of 50% or more. Effects have a minus sign here. The list shows a part of the results.

These compounds were tested against human ether-à-go-go-related gene (hERG) potassium channel (human, UniProt Q12809) (assay: primary screen, population patch clamp on CHO cells stably expressing hERG).
Sequence of human ether-à-go-go-related gene (hERG) potassium channel (Q12809 whole entry, looked up): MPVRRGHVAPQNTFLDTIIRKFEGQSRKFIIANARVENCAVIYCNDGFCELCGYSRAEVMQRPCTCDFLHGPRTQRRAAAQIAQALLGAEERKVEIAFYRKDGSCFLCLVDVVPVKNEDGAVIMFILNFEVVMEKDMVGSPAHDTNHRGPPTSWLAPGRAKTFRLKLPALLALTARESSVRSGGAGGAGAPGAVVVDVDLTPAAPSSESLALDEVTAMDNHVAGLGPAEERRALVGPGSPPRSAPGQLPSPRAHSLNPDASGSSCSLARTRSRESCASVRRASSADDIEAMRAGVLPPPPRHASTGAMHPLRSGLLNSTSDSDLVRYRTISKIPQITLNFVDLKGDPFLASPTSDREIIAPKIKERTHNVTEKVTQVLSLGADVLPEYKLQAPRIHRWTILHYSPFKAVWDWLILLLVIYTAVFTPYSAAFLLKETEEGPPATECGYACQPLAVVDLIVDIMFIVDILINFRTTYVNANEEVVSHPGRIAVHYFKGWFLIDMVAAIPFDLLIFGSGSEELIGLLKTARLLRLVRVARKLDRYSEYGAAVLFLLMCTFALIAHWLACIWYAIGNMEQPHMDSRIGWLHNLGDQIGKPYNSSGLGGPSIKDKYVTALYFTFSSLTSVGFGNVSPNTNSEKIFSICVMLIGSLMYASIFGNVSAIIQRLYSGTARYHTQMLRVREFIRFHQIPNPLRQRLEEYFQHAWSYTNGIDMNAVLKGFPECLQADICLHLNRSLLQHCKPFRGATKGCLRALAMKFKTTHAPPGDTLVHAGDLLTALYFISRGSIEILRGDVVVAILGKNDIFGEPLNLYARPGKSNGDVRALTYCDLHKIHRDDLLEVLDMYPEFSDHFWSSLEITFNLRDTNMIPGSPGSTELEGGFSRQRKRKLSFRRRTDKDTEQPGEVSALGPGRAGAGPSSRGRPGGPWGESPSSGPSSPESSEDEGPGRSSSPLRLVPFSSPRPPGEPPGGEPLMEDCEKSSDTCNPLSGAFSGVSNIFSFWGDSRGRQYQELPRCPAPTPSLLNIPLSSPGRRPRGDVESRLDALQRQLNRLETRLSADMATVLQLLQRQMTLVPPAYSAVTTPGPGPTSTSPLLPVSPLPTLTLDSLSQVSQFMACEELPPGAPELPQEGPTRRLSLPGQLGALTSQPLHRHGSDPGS
In the case of CCc1c(C(=O)NC2CCCc3ccccc32)[nH]c(C)c1C(C)=O (stereo not shown), the “hERG current change (%, negative = inhibition) at 1uM” value is reported as 10.6%. In the case of CC(C)CCN1CCN(Cc2cccn2-c2ccc(Cl)cn2)CC1CCO (stereo not shown), the “hERG current change (%, negative = inhibition) at 1uM” value is reported as -47.6%. For C/C(N)=C(/C#N)C(=O)CSc1nnnn1-c1ccc(C)cc1, the “hERG current change (%, negative = inhibition) at 1uM” value was -3.45%. CC(C(=O)NC(c1ccccc1)c1ccccc1)N1CCOCC1 (stereo not shown) was tested, and the “hERG current change (%, negative = inhibition) at 1uM” value was -2.2%. For CCOc1ccc(-c2cc3cc(OC)c(OC)cc3c(C)n2)cc1, the “hERG current change (%, negative = inhibition) at 1uM” value was 9.43%. For O=c1[nH]c2ccccc2c(=O)n1-c1cccc(Cl)c1, the “hERG current change (%, negative = inhibition) at 1uM” value was 7.15%. For COc1cccc(CC2(CO)CCN(CC3=CC[C@H]4C[C@@H]3C4(C)C)CC2)c1, the “hERG current change (%, negative = inhibition) at 1uM” value was 1.62%. For Cl.O=C(CCN1CCCCC1)Nc1cccc(Cl)c1, the “hERG current change (%, negative = inhibition) at 1uM” value was -1.31%. In the case of CC1CC(C)(C)NC(=O)O1 (stereo not shown), the “hERG current change (%, negative = inhibition) at 1uM” value is reported as -4.12%. O=C1C2C3c4ccccc4C(c4ccccc43)C2C(=O)N1c1nc(-c2ccccc2)cs1 (stereo not shown) was tested, and the “hERG current change (%, negative = inhibition) at 1uM” value was 12.8%. For O=C1CCC(C(=O)OC(C(=O)c2c[nH]c3ccccc23)c2ccccc2)=NN1 (stereo not shown), the “hERG current change (%, negative = inhibition) at 1uM” value was 10.1%. For O=C(C(=O)N1CCOCC1)c1cn(CC(=O)N2CCc3ccccc3C2)c2ccccc12, the “hERG current change (%, negative = inhibition) at 1uM” value was -3.42%. For Cc1ccnc(N/C=C(/NC(=O)c2ccccc2)C(=O)NN)n1, the “hERG current change (%, negative = inhibition) at 1uM” value was 6.61%. With Cc1cccc(NC(=S)Nc2ccc(Br)cc2)c1 the “hERG current change (%, negative = inhibition) at 1uM” value was 5.8%. CCOc1cc(S(=O)(=O)N2CCCC2)ccc1Cl was tested, and the “hERG current change (%, negative = inhibition) at 1uM” value was 2.75%. In the case of CCOc1ccc(S(=O)(=O)/N=C(/c2ccccc2)N(C)C)cc1, the “hERG current change (%, negative = inhibition) at 1uM” value is reported as 14%. With Cc1c(C(=O)N(C)C)c2cc(Cl)ccc2n1O the “hERG current change (%, negative = inhibition) at 1uM” value was 12.5%. For CNC(=O)c1cc2ncc(C(F)(F)F)cc2s1, the “hERG current change (%, negative = inhibition) at 1uM” value was 17.8%. Cc1cccc(-c2c(O)cc(=O)[nH]c2Cl)c1 was tested, and the “hERG current change (%, negative = inhibition) at 1uM” value was 12.7%. For CCCNC(=O)Nc1nccs1, the “hERG current change (%, negative = inhibition) at 1uM” value was 14.3%. CCN(CC)S(=O)(=O)c1ccc2oc(Nc3ccc(OC)cc3OC)nc2c1 was tested, and the “hERG current change (%, negative = inhibition) at 1uM” value was 8.04%. For CC(C)Cn1c(=O)[nH]c2ccccc21, the “hERG current change (%, negative = inhibition) at 1uM” value was 3.82%. Cc1cc(-c2n[nH]c(=S)n2/N=C/c2sccc2C)n[nH]1 was tested, and the “hERG current change (%, negative = inhibition) at 1uM” value was 5.14%. For COc1ccc(C(=O)NCCn2cc(SCC(=O)NCC3CCCO3)c3ccccc32)cc1OC (stereo not shown), the “hERG current change (%, negative = inhibition) at 1uM” value was 2.39%. Cc1nc2ccccc2c(=O)n1CCc1ccc(O)cc1 was tested, and the “hERG current change (%, negative = inhibition) at 1uM” value was 11.3%. For O=c1c(O)c(-c2cccs2)oc2ccccc12, the “hERG current change (%, negative = inhibition) at 1uM” value was 1.67%. In the case of COc1ccc(CN(C)S(=O)(=O)c2nnc(NC(=O)c3ccccc3Br)s2)cc1, the “hERG current change (%, negative = inhibition) at 1uM” value is reported as 9.17%. O=C(O)c1ccc(NC(=O)C2CCCCC2)cc1 was tested, and the “hERG current change (%, negative = inhibition) at 1uM” value was -0.767%. For COC(=O)c1c(C(=O)OC)c2cccc3cc(-c4ccccc4)c4ccc1c4n32, the “hERG current change (%, negative = inhibition) at 1uM” value was 12.9%. CC(=O)c1ccc(N2CCN(CC(=O)Nc3ccccc3C(=O)NC3CC3)CC2)c(F)c1 was tested, and the “hERG current change (%, negative = inhibition) at 1uM” value was -5.91%. In the case of CCCc1c(C(=O)NNc2cc(C(F)(F)F)ccc2Cl)cnn1-c1ccccc1, the “hERG current change (%, negative = inhibition) at 1uM” value is reported as 16.6%. Cc1ccc(-c2cc(C(=O)O)c3cc(Br)ccc3n2)o1 was tested, and the “hERG current change (%, negative = inhibition) at 1uM” value was 12.9%. CCOc1ccccc1-c1nc(-c2ccc(C)nc2OC)no1 was tested, and the “hERG current change (%, negative = inhibition) at 1uM” value was 7.25%. With Cc1nnc(SCC(=O)OC2CC(C)CCC2C(C)C)[nH]c1=O (stereo not shown) the “hERG current change (%, negative = inhibition) at 1uM” value was 12.6%. For Cc1cccc2c1-c1sc(C(=O)NCCCN3CCCC(C)C3)cc1CO2 (stereo not shown), the “hERG current change (%, negative = inhibition) at 1uM” value was 16.2%. In the case of Cc1ccc2[nH]c3c(c2c1)CNCC3.Cl, the “hERG current change (%, negative = inhibition) at 1uM” value is reported as 17.8%. Cc1cc(C)n(-c2nc(C)nc(N)n2)n1 was tested, and the “hERG current change (%, negative = inhibition) at 1uM” value was 13.2%. COc1ccc(CN(CCN2CCOCC2)C(=O)c2c(F)cccc2F)cc1OC.Cl was tested, and the “hERG current change (%, negative = inhibition) at 1uM” value was -3.02%. CC(=O)NCC(=O)N(C)C(C(=O)Nc1ccc2c(c1)OCCO2)c1ccccc1 (stereo not shown) was tested, and the “hERG current change (%, negative = inhibition) at 1uM” value was 8.77%. For Cn1c(C(=O)NC2CC2)cc2c(=O)n(C)c3ccccc3c21, the “hERG current change (%, negative = inhibition) at 1uM” value was 7.46%. In the case of CC1(C)CC(=O)C2=C(C1)NC(=O)C21C(C(=O)OC(C)(C)C)=C(N)Oc2ccc(Br)cc21 (stereo not shown), the “hERG current change (%, negative = inhibition) at 1uM” value is reported as -0.34%. With Cc1cc(C)n2nc(C(=O)Nc3ccn(Cc4ccccc4C)n3)cc2n1 the “hERG current change (%, negative = inhibition) at 1uM” value was 12.2%. In the case of COc1ccc(-n2c(=S)[nH]c3sc4c(c3c2=O)CCN(C)C4)cc1, the “hERG current change (%, negative = inhibition) at 1uM” value is reported as 16.9%. In the case of COc1ccccc1/C=C\C=N\NC(=O)CCn1nnc2ccccc21, the “hERG current change (%, negative = inhibition) at 1uM” value is reported as 9.61%. CC(=O)N[C@@H](C)c1nc2ccccc2n1CCCN1CCN(c2nc(-c3ccc(C)cc3)cs2)CC1 was tested, and the “hERG current change (%, negative = inhibition) at 1uM” value was 2.16%. In the case of O=C(/C=C/c1ccco1)N(Cc1cccc(F)c1)C1CCS(=O)(=O)C1 (stereo not shown), the “hERG current change (%, negative = inhibition) at 1uM” value is reported as 6.89%.
